Experimental data: patent US4399125A, “Novel antagonists of the antidiuretic action of arginine vasopressin” (priority 1981, dated 1983)
Part of at least one peptide drawing is inferred or uncertain, most often the ends. *1 amine or outer side, *2 acyl side, *3 side chain or, on linkers, in order; H or OH if unused. Where a SMILES comes first, the peptide text is derived from it. Bridges are numbered along the chain shown (N, C = ends). [ ]: non-standard residue; d: D form. The star is where a group is joined. X1 = O=C(CC1(S[*:2])CCCCC1)[*:1]; Propyl = CCC*; iPr = CC(C)*

What was measured:
[1] = tested on: vasopressor response to AVP; assay: Antagonism to the vasopressor response (Dyckes et al.); format: in vivo; conditions: effective dose as defined
Description: Antagonism to the vasopressor response was estimated in accordance with Dyckes et al., J. Med. Chem., vol. 17 (1974) at 969. The values are expressed as pA2 values, defined by Schild et al., Br. J. Pharmacol., vol. 2 (1947) at 189.
(§1) Antagonistic potencies were determined and expressed as "effective doses" and as pA2 values. The "effective dose" is defined as the dose (in nanomoles per kilogram) that reduces the response seen from 2x units of agonist injected 20 min after the dose of antagonist to the response with 1x units of agonist.

[2] = tested on: antidiuretic response to ADH (arginine vasopressin); assay: Antagonism of the antidiuretic response to ADH (anti-antidiuretic potency) in ethanol-anesthetized water-loaded rats; format: in vivo; conditions: for Anti-Antidiuretic ED: effective dose: i.v. dose reducing response to 2x units of agonist injected 20 min after antagonist to response with 1x units, ± spread, * = no antidiuretic agonism; for ratio of antivasopressor/anti-antidiuretic effective doses: selectivity, higher = more selective for anti-antidiuretic action
Description: Activity as antidiuretic agonists was determined by intravenous injection of compounds being evaluated into ethanol-anesthesized water-loaded rats in accordance with Sawyer et al., Endocrinology, vol. 63 (1958) at 694.
as §1

CCOc1ccc(C[C@H]2NC(=O)CC3(CCCCC3)SSC[C@@H](C(=O)N3CCC[C@H]3C(=O)N[C@@H](CCCNC(=N)N)C(=O)NCC(N)=O)NC(=O)[C@H](CC(N)=O)NC(=O)[C@H](C(C)C)NC(=O)[C@H](Cc3ccccc3)NC2=O)cc1 [d(CH2)5 --D-Tyr(Et) VAVP] ([dY](Et)FVNCPRG-NH2; linker N-5 via X1)
Antivasopressor ED [1]: 0.45 ± 0.11 nmol/kg | Anti-Antidiuretic ED [2]: 1.1 ± 0.2 nmol/kg

COc1ccc(C[C@H]2NC(=O)CC3(CCCCC3)SSC[C@@H](C(=O)N3CCC[C@H]3C(=O)N[C@@H](CCCNC(=N)N)C(=O)NCC(N)=O)NC(=O)[C@H](CC(N)=O)NC(=O)[C@H](C(C)C)NC(=O)[C@H](Cc3ccccc3)NC2=O)cc1 [d(CH2)5 --D-Tyr(Me) VAVP] ([dY](Me)FVNCPRG-NH2; linker N-5 via X1)
Antivasopressor ED [1]: 0.23 ± 0.04 nmol/kg | Anti-Antidiuretic ED [2]: 1.2 ± 0.3 nmol/kg

CC(C)[C@@H]1NC(=O)[C@H](Cc2ccccc2)NC(=O)[C@@H](Cc2ccccc2)NC(=O)CC2(CCCCC2)SSC[C@@H](C(=O)N2CCC[C@H]2C(=O)N[C@@H](CCCNC(=N)N)C(=O)NCC(N)=O)NC(=O)[C@H](CC(N)=O)NC1=O [d(CH2)5 D-Phe VAVP, [1-(β-mercapto-β,β-cyclopentamethylenepropionicacid), 2-D-phenylalanine, 4-valine]-arginine vasopressin] ([dF]FVNCPRG-NH2; linker N-5 via X1)
Antivasopressor ED [1]: 0.58 ± 0.04 nmol/kg | Anti-Antidiuretic ED [2]: 0.67 ± 0.13 nmol/kg

CC(C)[C@@H]1NC(=O)[C@H](Cc2ccccc2)NC(=O)[C@@H](Cc2ccccc2)NC(=O)CC2(CCCCC2)SSC[C@@H](C(=O)N2CCC[C@H]2C(=O)N[C@H](CCCNC(=N)N)C(=O)NCC(N)=O)NC(=O)[C@H](CC(N)=O)NC1=O [d(CH2)5 D-Phe VDAVP, [1-(β-mercapto-β,β-cyclopentamethylenepropionic acid), 2-D-phenylalanine, 4-valine, 8-D-arginine] vasopressin] ([dF]FVNCP[dR]G-NH2; linker N-5 via X1)
Antivasopressor ED [1]: 0.73 nmol/kg | Anti-Antidiuretic ED [2]: 6.9 ± 1.3 nmol/kg

CCOc1ccc(C[C@@H]2NC(=O)CC3(CCCCC3)SSC[C@@H](C(=O)N3CCC[C@H]3C(=O)N[C@@H](CCCNC(=N)N)C(=O)NCC(N)=O)NC(=O)[C@H](CC(N)=O)NC(=O)[C@H](C(C)C)NC(=O)[C@H](Cc3ccccc3)NC2=O)cc1 [d(CH2)5 Tyr(Et) VAVP] (Y(Et)FVNCPRG-NH2; linker N-5 via X1)
Antivasopressor ED [1]: 0.49 ± 0.11 nmol/kg | Anti-Antidiuretic ED [2]: 1.9 ± 0.2 nmol/kg

CCOc1ccc(C[C@@H]2NC(=O)CC3(CCCCC3)SSC[C@@H](C(=O)N3CCC[C@H]3C(=O)N[C@H](CCCNC(=N)N)C(=O)NCC(N)=O)NC(=O)[C@H](CC(N)=O)NC(=O)[C@H](C(C)C)NC(=O)[C@H](Cc3ccccc3)NC2=O)cc1 [d(CH2)5 Tyr(Et) VDAVP] (Y(Et)FVNCP[dR]G-NH2; linker N-5 via X1)
Antivasopressor ED [1]: 0.34 ± 0.04 nmol/kg | Anti-Antidiuretic ED [2]: 5.7 ± 0.5 nmol/kg

COc1ccc(C[C@@H]2NC(=O)CC3(CCCCC3)SSC[C@@H](C(=O)N3CCC[C@H]3C(=O)N[C@@H](CCCNC(=N)N)C(=O)NCC(N)=O)NC(=O)[C@H](CC(N)=O)NC(=O)[C@H](C(C)C)NC(=O)[C@H](Cc3ccccc3)NC2=O)cc1 [d(CH2)5 Tyr(Me) VAVP] (Y(Me)FVNCPRG-NH2; linker N-5 via X1)
Antivasopressor ED [1]: 0.29 ± 0.06 nmol/kg | Anti-Antidiuretic ED [2]: 3.1 ± 0.4 nmol/kg

COc1ccc(C[C@@H]2NC(=O)CC3(CCCCC3)SSC[C@@H](C(=O)N3CCC[C@H]3C(=O)N[C@H](CCCNC(=N)N)C(=O)NCC(N)=O)NC(=O)[C@H](CC(N)=O)NC(=O)[C@H](C(C)C)NC(=O)[C@H](Cc3ccccc3)NC2=O)cc1 [d(CH2)5 Tyr(Me) VDAVP, [1-(β-mercapto-β,β-cyclopentamethylenepropionic acid), 2-O-methyltyrosine, 4-valine, 8-D-arginine] vasopressin] (Y(Me)FVNCP[dR]G-NH2; linker N-5 via X1)
Antivasopressor ED [1]: 0.28 ± 0.05 nmol/kg | Anti-Antidiuretic ED [2]: 15 ± 3 nmol/kg

CC(C)Oc1ccc(C[C@@H]2NC(=O)CC3(CCCCC3)SSC[C@@H](C(=O)N3CCC[C@H]3C(=O)N[C@@H](CCCNC(=N)N)C(=O)NCC(N)=O)NC(=O)[C@H](CC(N)=O)NC(=O)[C@H](C(C)C)NC(=O)[C@H](Cc3ccccc3)NC2=O)cc1 [d(CH2)5 Tyr(i-Pr) VAVP] (Y(iPr)FVNCPRG-NH2; linker N-5 via X1)
Antivasopressor ED [1]: 0.31 ± 0.06 nmol/kg | Anti-Antidiuretic ED [2]: 3.6 ± 0.9 nmol/kg

CC(C)Oc1ccc(C[C@@H]2NC(=O)CC3(CCCCC3)SSC[C@@H](C(=O)N3CCC[C@H]3C(=O)N[C@H](CCCNC(=N)N)C(=O)NCC(N)=O)NC(=O)[C@H](CC(N)=O)NC(=O)[C@H](C(C)C)NC(=O)[C@H](Cc3ccccc3)NC2=O)cc1 [d(CH2)5 Tyr(i-Pr) VDAVP] (Y(iPr)FVNCP[dR]G-NH2; linker N-5 via X1)
Antivasopressor ED [1]: 0.28 ± 0.07 nmol/kg | Anti-Antidiuretic ED [2]: 8.5 ± 0.17 nmol/kg

CCCOc1ccc(C[C@@H]2NC(=O)CC3(CCCCC3)SSC[C@@H](C(=O)N3CCC[C@H]3C(=O)N[C@@H](CCCNC(=N)N)C(=O)NCC(N)=O)NC(=O)[C@H](CC(N)=O)NC(=O)[C@H](C(C)C)NC(=O)[C@H](Cc3ccccc3)NC2=O)cc1 [d(CH2)5 Tyr(n-Pr) VAVP] (Y(Propyl)FVNCPRG-NH2; linker N-5 via X1)
Antivasopressor ED [1]: 0.40 ± 0.04 nmol/kg | Anti-Antidiuretic ED [2]: 3.5 ± 0.06 nmol/kg

CCCOc1ccc(C[C@@H]2NC(=O)CC3(CCCCC3)SSC[C@@H](C(=O)N3CCC[C@H]3C(=O)N[C@H](CCCNC(=N)N)C(=O)NCC(N)=O)NC(=O)[C@H](CC(N)=O)NC(=O)[C@H](C(C)C)NC(=O)[C@H](Cc3ccccc3)NC2=O)cc1 [d(CH2)5 Tyr(n-Pr) VDAVP] (Y(Propyl)FVNCP[dR]G-NH2; linker N-5 via X1)
Antivasopressor ED [1]: 1.1 ± 0.2 nmol/kg | Anti-Antidiuretic ED [2]: 14 ± 2 nmol/kg

CC(C)[C@@H]1NC(=O)[C@H](Cc2ccccc2)NC(=O)[C@@H](C)NC(=O)CC2(CCCCC2)SSC[C@@H](C(=O)N2CCC[C@H]2C(=O)N[C@@H](CCCNC(=N)N)C(=O)NCC(N)=O)NC(=O)[C@H](CC(N)=O)NC1=O [d(CH2)5 [D-Ala^2] VAVP, [1-(β-mercapto-β,β-cyclopentamethylenepropionic acid), 2-D-alanine, 4-valine]-arginine vasopressin] ([dA]FVNCPRG-NH2; linker N-5 via X1)
Antivasopressor ED [1]: 172 ± 31 nmol/kg | Anti-Antidiuretic ED [2]: agonist

CC(C)[C@@H]1NC(=O)[C@H](Cc2ccccc2)NC(=O)[C@@H](CCCNC(=N)N)NC(=O)CC2(CCCCC2)SSC[C@@H](C(=O)N2CCC[C@H]2C(=O)N[C@@H](CCCNC(=N)N)C(=O)NCC(N)=O)NC(=O)[C@H](CC(N)=O)NC1=O [d(CH2)5 [D-Arg^2] VAVP, [1-(β-mercapto-β,β-cyclopentamethylenepropionic acid), 2-D-arginine, 4-valine]-arginine vasopressin] ([dR]FVNCPRG-NH2; linker N-5 via X1)
Antivasopressor ED [1]: ~ 260 nmoles/Kg | Anti-Antidiuretic ED [2]: > 90 nmol/kg

CC[C@@H](C)[C@H]1NC(=O)CC2(CCCCC2)SSC[C@@H](C(=O)N2CCC[C@H]2C(=O)N[C@@H](CCCNC(=N)N)C(=O)NCC(N)=O)NC(=O)[C@H](CC(N)=O)NC(=O)[C@H](C(C)C)NC(=O)[C@H](Cc2ccccc2)NC1=O [d(CH2)5 [D-Ile^2] VAVP, [1-(β-mercapto-β,β-cyclopentamethylenepropionic acid), 2-D-isoleucine, 4-valine]-arginine vasopressin] ([dI]FVNCPRG-NH2; linker N-5 via X1)
Antivasopressor ED [1]: 8.2 ± 1.4 nmol/kg | Anti-Antidiuretic ED [2]: 0.70 ± 0.0 nmol/kg | ratio of antivasopressor/anti-antidiuretic effective doses [2]: 12

CC(C)C[C@H]1NC(=O)CC2(CCCCC2)SSC[C@@H](C(=O)N2CCC[C@H]2C(=O)N[C@@H](CCCNC(=N)N)C(=O)NCC(N)=O)NC(=O)[C@H](CC(N)=O)NC(=O)[C@H](C(C)C)NC(=O)[C@H](Cc2ccccc2)NC1=O [d(CH2)5 [D-Leu^2] VAVP, [1-(β-mercapto-β,β-cyclopentamethylenepropionic acid), 2-D-leucine, 4-valine]-arginine vasopressin] ([dL]FVNCPRG-NH2; linker N-5 via X1)
Antivasopressor ED [1]: 26 ± 5 nmol/kg | Anti-Antidiuretic ED [2]: 1.2 ± 0.3 nmol/kg | ratio of antivasopressor/anti-antidiuretic effective doses [2]: 22

CC(C)[C@@H]1NC(=O)[C@H](Cc2ccccc2)NC(=O)[C@@H](C(C)C)NC(=O)CC2(CCCCC2)SSC[C@@H](C(=O)N2CCC[C@H]2C(=O)N[C@@H](CCCNC(=N)N)C(=O)NCC(N)=O)NC(=O)[C@H](CC(N)=O)NC1=O [d(CH2)5 [D-Val^2] VAVP, [1-(β-mercapto-β,β-cyclopentamethylenepropionic acid), 2-D-valine, 4-valine]-arginine vasopressin] ([dV]FVNCPRG-NH2; linker N-5 via X1)
Antivasopressor ED [1]: 27 ± 3 nmol/kg | Anti-Antidiuretic ED [2]: 2.3 ± 0.3 nmol/kg | ratio of antivasopressor/anti-antidiuretic effective doses [2]: 12

CC(C)[C@@H]1NC(=O)[C@H](Cc2ccccc2)NC(=O)CNC(=O)CC2(CCCCC2)SSC[C@@H](C(=O)N2CCC[C@H]2C(=O)N[C@@H](CCCNC(=N)N)C(=O)NCC(N)=O)NC(=O)[C@H](CC(N)=O)NC1=O [d(CH2)5 [Gly^2] VAVP, [1-(β-mercapto-β,β-cyclopentamethylenepropionic acid), 2-glycine, 4-valine]-arginine vasopressin] (GFVNCPRG-NH2; linker N-5 via X1)
Antivasopressor ED [1]: agonist | Anti-Antidiuretic ED [2]: agonist
